{"source": "PubChem BioAssay AID1458", "about": "(National Center for Advancing Translational Sciences (NCATS), 2008)", "note": "About 5,900 (2.8%) of roughly 210,000 compounds were called active. Inconclusive means that the source gave no clear call. Such entries were picked first, then a sample of the others. Calls follow the shape of the dose curve; as a rule, active = well fitted activation curve with a large enough effect; inconclusive = small, poorly fitted or top-dose-only effect; inactive = no such curve, though single readings can be large or run the other way. Where the call is inconclusive, the potency comes from a doubtful curve fit. Potency is read from the fitted curve at half-maximal effect; tags tell the direction and shape of the fitted curve."}
{"test": "qHTS Assay for Enhancers of SMN2 Splice Variant Expression; also: nearly all actives have a fitted effect of over 55% in size", "conditions": "HEK293 SMN2-luciferase splicing reporter, luminescence, 30-36 h; series mostly up to 46.1 µM", "excerpt": "NIH Chemical Genomics Center [NCGC] NIH Molecular Libraries Probe Production centers Network [MLPCN] MLPCN Grant: R03 MH084179-01 Assay Submitter (PI): Elliot Androphy NCGC Assay Overview: Spinal muscular atrophy (SMA) is caused by insufficient levels of the survival motor neuron protein SMN. The SMN locus on chromosome 5q13 contains two inverted copies of SMN called SMN1 and SMN2 which are 99% identical at the amino acid level. SMN1 is a fully functional protein and SMN2 skips exon 7 90% of the time. Skipping of exon 7 produces non-functional protein product. 10% of the SMN2 protein includes exon 7 and is fully functional. In the SMA disease state, mutations in the SMN1 locus are the cause of the disease state. Because only 10% of SMN2 is of the fully functional form, it is not sufficient to overcome the deficiency produced by the loss of the SMN1 product. A therapy that either increase the amount of SMN2 product made or to increase the inclusion of exon 7 has been proposed for the treatment of SMA. We have designed an assay to identify small molecules that can increase the amount of functional SMN2 product by appending a luciferase reporter gene after the native SMN2 gene, such that inclusion of exon 7 in the expressed product places the luciferase sequence in frame, thus generating functional luciferase enzyme.\nNCGC Assay Protocol Summary: This screen utilizes a luciferase reporter gene assay, combining the promoter and splicing based cassettes in tandem with the major portion of the native SMN2 cDNA, and then transfected into HEK293 cells. Compounds that increase luciferase signal presumably enhance expression of the functional SMN2 splice variant. Passaging media contained DMEM w/ glutamax (+phenol red) 10% FCS, 1x pen/strep, 200 ug/ml hygro, 1x sodium pyruvate. Assay media contained DMEM w/ glutamax (-phenol red) 10% FCS, 1x pen strep, 1x pyruvate Sequence, Parameter, Value, Description (1) Cells, […], 2000 cells/well, 1536 TC treated White solid bottom plate (2) Time, 10-12 hours, 37C 5% CO2 (3) Compound, 23 nl, MLSMR Library (4) Control Compound, 23 nL, Sodium butyrate st 4.5mM (final) conc (5) Time, 30-36 hours, 37C 5% CO2 (6) Reagent, 3 ul, One Glo (TM) from Promega (7) Time, 5-15 minutes, Room temp (8) Detector, Viewlux: luminescent read, 60 second integration, high speed 2x binning Keywords: Spinal muscular atrophy, SMA, SMN2, high throughput screening, MLSMR, MLPCN, NIH Roadmap, qHTS and NCGC"}
{"compound": "N#C/C(=N\\Nc1ccc(Br)cc1)C(=N)N1CCOCC1", "Potency": "inconclusive: 11.2 µM [activator, partial curve]"}
{"compound": "OC1(c2cccc(C(F)(F)F)c2)CCN(c2ccc(-c3ccccc3)nn2)CC1", "Potency": "inconclusive: 2 µM [activator, partial curve]"}
{"compound": "Cc1cc(NCCN2CCOCC2)n2nc(C)c(-c3ccc(Cl)cc3)c2n1", "Potency": "inactive"}
{"compound": "CCOc1ccc(N2C(=O)CC(SCCN)C2=O)cc1", "note": "(configuration not stated)", "Potency": "active: 11.2 µM"}
{"compound": "CCOC(=O)Cn1c(=S)[nH]c2c(oc3ccc(Cl)cc32)c1=O", "Potency": "inconclusive: 0.02 µM [activator, full curve, poor fit]"}
{"compound": "COc1ccc2[nH]c(=O)c(CN(Cc3cccs3)Cc3nnnn3Cc3ccccc3)cc2c1", "Potency": "inconclusive: 0.005 µM [activator, full curve, poor fit]"}
{"compound": "Cc1cc2nn(-c3ccccc3)nc2cc1NC(=O)c1cccs1", "Potency": "inconclusive: 35.5 µM [activator, single point]"}
{"compound": "CCOC(=O)C1=C(C(F)(F)F)Nc2ncnn2C1c1cc(OC)ccc1OC", "note": "(configuration not stated)", "Potency": "inconclusive: 0.891 µM [activator, full curve, poor fit]"}
{"compound": "CCOc1ccccc1-c1noc(CCCC(=O)Nc2cccc(C(F)(F)F)c2)n1", "Potency": "inactive"}
{"compound": "O=C(C1CCN(Cc2ccccc2)CC1)N1CCN(C/C=C/c2ccccc2)CC1", "Potency": "inconclusive: 25.1 µM [activator, single point]"}
{"compound": "CC1CN(C(=O)c2cccc(COc3ccc(Br)cc3)c2)CC(C)O1", "note": "(configuration not stated)", "Potency": "active: 3.98 µM"}
{"compound": "COc1cc(O)c2c(c1)COC2=O", "Potency": "inconclusive: 7.08 µM [activator, full curve, poor fit]"}
{"compound": "O=C1/C(=C\\Nc2ccccc2)CCN1c1ncccn1", "Potency": "inconclusive: 11.2 µM [activator, partial curve, poor fit]"}
{"compound": "O=C(Nc1ccc2oc(=O)ccc2c1)c1cc2ccccc2o1", "Potency": "active: 3.55 µM"}
{"compound": "CCOC(=O)C(C(=O)OCC)C1N=C(N)N=C2Oc3ccccc3N21", "note": "(configuration not stated)", "Potency": "inconclusive: 20 µM [activator, partial curve, poor fit]"}
{"compound": "O=C1CCC(/C=C/c2ccccc2)=NN1", "Potency": "inactive"}
{"compound": "O=C(Nc1ccc(Cn2cccn2)cc1)c1ccc(COc2ccccc2Br)cc1", "Potency": "inactive"}
{"compound": "Cc1cccc(NC(=O)c2ccccc2OCC(=O)N2CCOCC2)c1C", "Potency": "inconclusive: 7.08 µM [activator, partial curve]"}
{"compound": "CCOc1ccc2c(c1)c(N=Nc1cccc(C(=O)O)c1)c(O)n2C", "Potency": "inconclusive: 0.0178 µM [activator, single point]"}
{"compound": "COc1ccc(SCC(=O)c2cc(C)c(OC(=S)N(C)C)c(C)c2)cc1", "Potency": "inactive"}
{"compound": "CN1CCN(CC(=O)N2N=C(c3cccs3)CC2c2ccco2)CC1", "note": "(configuration not stated)", "Potency": "inconclusive: 3.16 µM [activator, single point]"}
{"compound": "Cc1ccc(S(=O)(=O)c2c(N)n(C)c3nc4ccccc4nc23)cc1", "Potency": "inconclusive: 0.004 µM [activator, full curve, poor fit]"}
{"compound": "CCCCN(C(=O)CCC(=O)Nc1cc(C)on1)C(C(=O)NC(C)(C)C)c1cccc(OC)c1OC", "note": "(configuration not stated)", "Potency": "inactive"}
{"compound": "CCc1ccc(NC(=O)c2sc3nc4c(cc3c2N)CN(CC)CC4)cc1", "Potency": "inactive"}
{"compound": "COc1ccc(-n2c(C)cc(C(=O)NC3CCCCC3)c2C)cc1", "Potency": "inconclusive: 10 µM [activator, partial curve]"}
{"compound": "COc1ccc(C2C(C(C)=O)=C(C)N=c3s/c(=C\\c4cc(C)n(C)c4C)c(=O)n32)c(OC)c1", "note": "(configuration not stated)", "Potency": "inconclusive: 35.5 µM [activator, single point]"}
{"compound": "COC(=O)CC(=O)CSc1nc2c(cc1C#N)CCCCC2", "Potency": "inconclusive: 3.16 µM [activator, partial curve, poor fit]"}
{"compound": "CN(c1ccc(C(=O)NCCc2ccccc2)cc1)S(C)(=O)=O", "Potency": "active: 14.1 µM"}
{"compound": "CCOCc1cn(CC(=O)c2ccc([N+](=O)[O-])cc2)c(C)nc1=N", "Potency": "inconclusive: 3.55 µM [activator, single point]"}
{"compound": "CCc1ccc(NC(=O)c2cc(CC(C)C)on2)cc1", "Potency": "inactive"}
{"compound": "O=C(CNC(=S)NC(=O)c1ccccc1)c1ccccc1", "Potency": "inconclusive: 11.2 µM [activator, partial curve, poor fit]"}
{"compound": "Cc1cc(N(C)Cc2ccccc2)n2nc(-c3ccc(C(C)(C)C)cc3)nc2n1", "Potency": "inactive"}
{"compound": "Nc1c(C(=O)c2ccc(Br)cc2)oc2ccccc12", "Potency": "inconclusive: 2.82 µM [activator, single point]"}
{"compound": "Cc1cc(C)n(-c2nc3ccccc3nc2N2CCN(C(=O)c3ccccc3)CC2)n1", "Potency": "inconclusive: 0.0282 µM [activator, full curve, poor fit]"}
{"compound": "Cc1cc(/C=N/Nc2ccc([N+](=O)[O-])cn2)c(C)n1-c1ccccc1", "Potency": "inconclusive: 3.98 µM [activator, single point]"}
{"compound": "CCOC(=O)CN1C(=O)S/C(=C/C=C/c2ccc(N(C)C)cc2)C1=O", "Potency": "inconclusive: 11.2 µM [activator, partial curve, poor fit]"}
{"compound": "c1ccc(CSCc2cn3ccccc3n2)cc1", "Potency": "active: 15.8 µM"}
{"compound": "COc1ccc2o/c(=N/NC(=S)Nc3ccccc3)c(C(N)=O)cc2c1", "Potency": "inconclusive: 3.16 µM [activator, single point]"}
{"compound": "COc1ccc(N/C=C2/Sc3ccccc3NC2=O)cc1", "Potency": "active: 12.6 µM"}
{"compound": "Cc1ccc(NC(=O)Cn2c(-c3ccc4c(c3)OCO4)cn(-c3ccccc3)c2=O)cc1", "Potency": "inconclusive: 17.8 µM [activator, single point]"}
{"compound": "CC1=NN(c2cccc(C(=O)O)c2)C(=O)/C1=C\\C=C\\c1ccco1", "Potency": "inactive"}
{"compound": "O=C(Nc1ccccc1)c1ccc(-c2ccc(F)cc2)s1", "Potency": "inconclusive: 12.6 µM [activator, partial curve, poor fit]"}
{"compound": "N/C(=N\\OC(=O)CCC1CCCC1)c1ccccn1", "Potency": "inconclusive: 20 µM [activator, single point]"}
{"compound": "O=[N+]([O-])c1cc(S(=O)(=O)Nc2ccc(Cl)cc2)ccc1N/N=C/c1ccncc1", "Potency": "inconclusive: 0.562 µM [activator, full curve]"}
{"compound": "Cc1c(C(=O)c2ccc(Cl)cc2[N+](=O)[O-])c2ccccn2c1CCC#N", "Potency": "inconclusive: 5.62 µM [activator, single point]"}
{"compound": "Cc1cc(C)nc(NC(=O)CSc2nc3ccccc3o2)n1", "Potency": "inconclusive: 35.5 µM [activator, single point]"}
{"compound": "Cc1c(C(=O)Nc2cccc([N+](=O)[O-])c2)csc1-c1ccccc1", "Potency": "active: 28.2 µM"}
{"compound": "Clc1cccc(-c2ccc(C=Nc3ccc(N4CCOCC4)cc3)o2)c1", "Potency": "inactive"}
{"compound": "CCc1c(C)sc(NC(=O)C2CCCO2)c1C#N", "note": "(configuration not stated)", "Potency": "inconclusive: 35.5 µM [activator, single point]"}
{"compound": "CS(=O)(=O)N(CC(=O)O)c1cccc(Cl)c1", "Potency": "inconclusive: 5.62 µM [activator, single point]"}
{"compound": "Cc1nc2c(ccc3nc(NC(=O)Cc4ccccc4)sc32)s1", "Potency": "inconclusive: 0.316 µM [activator, partial curve, poor fit]"}
{"compound": "COc1cc(-c2nnc(CSc3nnc(Nc4ccc(C(C)C)cc4)s3)o2)cc(OC)c1OC", "Potency": "inconclusive: 35.5 µM [activator, single point]"}
{"compound": "Cc1cc(C(=O)N/N=C/c2cc(N=Nc3ccccc3)ccc2O)n[nH]1", "Potency": "inactive"}
{"compound": "CCOc1ccc(-c2n[nH]c3c2C(c2ccccc2OC)N(c2ccc(Br)cc2)C3=O)cc1", "note": "(configuration not stated)", "Potency": "inactive"}
{"compound": "CCc1ccc2[nH]c(=O)c(CN(CCCN3CCOCC3)C(=O)Nc3ccc(F)cc3)cc2c1", "Potency": "inconclusive: 0.1 µM [activator, full curve, poor fit]"}
{"compound": "CC(=O)c1cnc(N2CCCCC2)nc1C", "Potency": "inconclusive: 0.891 µM [activator, full curve, poor fit]"}
{"compound": "COc1cc(NC(=O)c2ccco2)c(C(=O)OCC(=O)Nc2ncc(Cl)cc2Cl)cc1OC", "Potency": "inconclusive: 0.0708 µM [activator, full curve, poor fit]"}
{"compound": "CN(CCC1CCCCO1)C(=O)CCc1nnc(CCCCc2ccccc2)o1", "note": "(configuration not stated)", "Potency": "inactive"}
{"compound": "CCOc1ccc(OCCCC(=O)O)cc1", "Potency": "inactive"}
{"compound": "CCOC(=O)Cc1csc(NC(=O)COc2c(C)cccc2C)n1", "Potency": "inactive"}
{"compound": "O=C(CSC(=S)N1CCOCC1)c1ccccc1", "Potency": "active: 0.794 µM"}
{"compound": "CCC(C)(C(=O)NC1CCCCC1)N(Cc1ccco1)C(=O)c1cnccn1", "note": "(configuration not stated)", "Potency": "inconclusive: 0.158 µM [activator, full curve, poor fit]"}
{"compound": "Nc1nonc1-c1nc2ccccc2n1Cc1ccc(F)cc1Cl", "Potency": "inconclusive: 0.0631 µM [activator, full curve, poor fit]"}
{"compound": "Cc1cccc(N2CCN(C(=O)c3ccncc3)CC2C)c1", "note": "(configuration not stated)", "Potency": "inactive"}
{"compound": "S=c1[nH]nc(-c2cc3ccccc3o2)n1Cc1ccccc1", "Potency": "inactive"}
{"compound": "Cc1ccc(C)c(OCc2nnc(NC(=O)c3ccco3)s2)c1", "Potency": "inconclusive: 0.891 µM [activator, full curve, poor fit]"}
{"compound": "COC(=O)c1cc2oc(C)cc2n1Cc1c(C)cc(C)cc1C", "Potency": "inactive"}
{"compound": "COc1cc(C)nc(NS(=O)(=O)c2ccccc2)n1", "Potency": "inconclusive: 11.2 µM [activator, partial curve]"}
{"compound": "Cc1cc(N)n(-c2nc(-c3cccnc3)nc3ccccc23)n1", "Potency": "inconclusive: 1.41 µM [activator, partial curve]"}
{"compound": "Cc1ccc(NS(=O)(=O)c2cc(NC(=O)c3cc4c(s3)CCCC4)ccc2C)c(C)c1", "Potency": "inconclusive: 1.58 µM [activator, partial curve]"}
{"compound": "Cc1c(C)c2cc(Cl)c(O)c(CN3CCCC(C)C3)c2oc1=O", "note": "(configuration not stated)", "Potency": "inactive"}
{"compound": "CN=c1oc2ccc(Cl)cc2cc1C(N)=O", "Potency": "inconclusive: 35.5 µM [activator, partial curve, poor fit]"}
